According to publication PMC4336329 (PLoS ONE, 2015):
Hit rate of the full screen: of about 310,000 compounds, about 2,200 (0.71%) showed an effect of 50% or more. The effect is printed as a negative number. The list shows a part of the results.

Molecular target: human ether-à-go-go-related gene (hERG) potassium channel (human, UniProt Q12809)
Test: primary screen, population patch clamp on CHO cells stably expressing hERG

Sequence of human ether-à-go-go-related gene (hERG) potassium channel (Q12809 whole entry, looked up): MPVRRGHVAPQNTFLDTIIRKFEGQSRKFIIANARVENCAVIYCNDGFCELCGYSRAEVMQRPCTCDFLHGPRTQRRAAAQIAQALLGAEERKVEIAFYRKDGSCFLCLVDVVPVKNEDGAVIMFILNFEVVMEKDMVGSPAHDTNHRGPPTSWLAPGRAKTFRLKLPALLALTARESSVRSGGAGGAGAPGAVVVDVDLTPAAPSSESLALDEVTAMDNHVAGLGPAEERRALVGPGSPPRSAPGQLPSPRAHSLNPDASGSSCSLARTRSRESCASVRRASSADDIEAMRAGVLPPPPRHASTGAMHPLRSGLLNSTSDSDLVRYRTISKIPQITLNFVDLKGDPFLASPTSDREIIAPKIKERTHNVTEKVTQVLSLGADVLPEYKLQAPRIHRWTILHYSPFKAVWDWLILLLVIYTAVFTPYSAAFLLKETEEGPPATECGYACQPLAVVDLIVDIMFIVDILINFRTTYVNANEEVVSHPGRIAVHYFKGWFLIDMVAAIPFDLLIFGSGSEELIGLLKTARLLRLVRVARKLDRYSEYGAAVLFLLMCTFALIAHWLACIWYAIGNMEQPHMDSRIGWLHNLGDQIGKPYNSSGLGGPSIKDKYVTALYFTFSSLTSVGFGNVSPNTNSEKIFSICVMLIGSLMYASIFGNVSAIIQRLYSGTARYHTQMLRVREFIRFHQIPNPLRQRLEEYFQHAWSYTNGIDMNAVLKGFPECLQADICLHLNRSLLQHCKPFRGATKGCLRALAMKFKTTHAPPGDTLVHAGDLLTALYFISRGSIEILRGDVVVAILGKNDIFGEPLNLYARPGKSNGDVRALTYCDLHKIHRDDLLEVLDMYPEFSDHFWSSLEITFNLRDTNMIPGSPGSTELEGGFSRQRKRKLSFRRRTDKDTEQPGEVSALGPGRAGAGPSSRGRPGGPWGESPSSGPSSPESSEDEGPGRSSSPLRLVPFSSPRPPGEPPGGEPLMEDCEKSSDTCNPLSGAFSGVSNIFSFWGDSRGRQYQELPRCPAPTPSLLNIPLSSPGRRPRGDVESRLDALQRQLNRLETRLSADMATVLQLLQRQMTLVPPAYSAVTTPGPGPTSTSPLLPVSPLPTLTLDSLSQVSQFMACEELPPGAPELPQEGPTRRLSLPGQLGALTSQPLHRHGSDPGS

Structure (SMILES) | hERG current change (%, negative = inhibition) at 1uM [%]
Cc1ccc(S(=O)(=O)C(C#N)c2nc3ccccc3nc2N2CCN(C)CC2)cc1C (stereo not drawn) | 13.2
Cc1cc(C)n2ncc(C(=O)NCc3ccc(Cl)cc3)c2n1 | 4.94
CC(C(=O)NCc1cccs1)N1C(=O)c2ccccc2C1=O (stereo not drawn) | 6.24
CCCn1cnc2c1c(=O)n(CCCCC(C)=O)c(=O)n2C | 4.24
COc1ccccc1C1C(C(C)=O)=C(C)N=c2s/c(=C\c3cc(OC)c(OC)c(OC)c3)c(=O)n21 (stereo not drawn) | 8.57
CCOc1cc2[nH]c(=S)n(CCCC(=O)N3CCC4(CC3)OCCO4)c(=O)c2cc1OCC | 11.1
C=CCOCCN(C)C1=NS(=O)(=O)c2ccccc21.Cl | 2.56
Cc1cc(=O)[nH]c2ccc(S(=O)(=O)N3CCOCC3)cc12 | 19.9
COc1ccc(C(=O)N/N=C/c2ccc(OC)c(COc3c(F)c(F)cc(F)c3F)c2)cc1 | 15.9
COc1cc(NC(=O)c2cccc([N+](=O)[O-])c2)ccc1NC(=O)c1cc2ccccc2o1 | 11
O=C(CSc1nnc(SCC(=O)c2ccco2)s1)c1ccco1 | 6.14
O=C1CN(c2nc3ccccc3n3cnnc23)CC(=O)N1CCc1ccccc1 | 12.1
C=CCN(C(=O)Nc1ccc2c(c1)nc(C)n2C)c1ccccc1 | 6.88
Cc1cc(NCc2ccco2)nc(N2CCC(C(=O)NC3CCCCC3)CC2)n1 | -63.6
COc1ccc(N(CC(=O)Nc2ccccc2F)S(=O)(=O)c2ccc(OC)c(OC)c2)cc1 | 10.5
CC(NC(=O)c1ccc(S(=O)(=O)NCc2ccco2)cc1)c1ccc(F)cc1 (stereo not drawn) | 10.1
O=C(COC(=O)CCCNC(=O)c1ccc(Cl)cc1)Nc1cc(Cl)c(Cl)cc1Cl | 6.77
Cc1ccc(SCC(=O)OCC(=O)NCCc2ccccc2)cc1C | 2.46
O=C(NC(=S)Nc1cc(Cl)ccc1N1CCOCC1)c1ccc(-c2cccc(Cl)c2)o1 | 3.35
COc1cc(/C=N/Nc2nnc3c(n2)[nH]c2ccccc23)ccc1O | 11.8
CCOC(=O)Cn1c(=O)c2c(nc3n2CCCCN3c2ccc(OCC)cc2)n(C)c1=O | -2.41
COc1ccc(OC)c(NC(=O)C(=O)N/N=C(\C)CC(=O)Nc2ccc(Cl)cn2)c1 | 7.3

Structure (SMILES) | hERG current change (%, negative = inhibition) at 1uM [%]
CCC(NC(=O)c1ccccc1NC(=O)C(C)(C)C)C(=O)N1CCCC1 (stereo not drawn) | 17.5
O=C1N(c2ccccc2C(F)(F)F)O[C@]1(c1ccccc1)C1CCCC1 | 17
COc1ccc(C(=O)NC(C)c2ccc(-n3ccnc3)cc2)c(OC)c1 (stereo not drawn) | -13.6
CCN1CCN(C(C(=O)NC2CCCC2)c2ccc(Cl)cc2)CC1 (stereo not drawn) | 7.47
Cc1ccc(-c2nn(Cc3ccccc3)cc2C=O)cc1C | -0.185
Fc1ccc(-c2cc3nc4c(c(N5CCOCC5)n3n2)CCCC4)cc1 | 8.4
Cn1cnc(C(=O)N2CCN(c3ccccc3)CC2)c1C(=O)N1CCN(c2ccccc2)CC1 | 9.94
CCn1c(SCC(=O)Nc2ccccc2OC)nc(O)cc1=O | 10
COc1ccc(-n2cc(CNCCCn3ccnc3)c(-c3ccccc3Cl)n2)cc1 | 1.48
O=C(CNC(=O)c1ccco1)NCC(=O)OCc1ccc(C(=O)Oc2ccc(Cl)cc2)cc1 | 16.3
O=C(Cc1ccccc1)NC(NCCc1ccccc1)C(Cl)(Cl)Cl (stereo not drawn) | -11.6
OCC[NH+](CCO)CC(O)COc1ccc(Br)cc1.[Cl-] (stereo not drawn) | 7.83
O=C(Cn1c(CO)nc2ccccc21)NCCc1ccc(F)cc1 | 4.45
COc1ccccc1NC(=S)N/N=C/c1cccc(C)c1 | 14.8
Cc1nc(C)c(-c2nnc(-c3ccc(C(C)(C)C)cc3)o2)cc1C(=O)NN | 7.52
COc1ccc(S(=O)(=O)NCC2CCCO2)c(Cl)c1Cl (stereo not drawn) | 6.76
C[C@@H](NC(=O)c1nc[nH]c1C(=O)NCC(=O)OCc1ccccc1)c1ccccc1 | -2.31
CCCCC(=O)NC(NC(=O)CCCC)c1ccc(OCCC)c(OC)c1 | -6.04
CCn1ncc(Cl)c1C(=O)NC(=S)Nc1c(C)cc(C)cc1[N+](=O)[O-] | 1.62
COC(=O)c1ccccc1NC(=O)CSc1nccn1C | 9.7
O=C(O)c1ccc(C(=O)c2ccc3c(c2)C(=O)N(Cc2ccco2)C3=O)cc1 | 3.64
C=CCn1c(SCC(=O)c2ccc(Br)cc2)nnc1C(CC(C)C)NC(=O)c1cccs1 (stereo not drawn) | 3.73

Structure (SMILES) | hERG current change (%, negative = inhibition) at 1uM [%]
Cc1ccc(SCC(=O)OCC(=O)NCc2cccs2)cc1 | 9.05
Cc1cc(C)n2ncc(C(=O)Nc3cccc(O)c3)c2n1 | 5.08
O=C(c1ccc2c(c1)OCO2)C1CCCN(Cc2ccc3cccc(F)c3n2)C1 (stereo not drawn) | -81.5
Cc1ccc(C(=O)N/C(=C\c2ccc(Cl)cc2)C(=O)NCCN2CCOCC2)cc1 | -70.6
COC(=O)c1cc2oc(C)cc2n1CC(=O)Nc1ccc(C)c(C)c1 | 13.6
O=C(Nc1ccccc1Oc1cccnc1)C1CCCN(C/C=C/c2ccc(F)cc2)C1 (stereo not drawn) | -11.8
COc1ccc(Nc2nc(-c3cccs3)cs2)c(OC)c1 | 2.87
O=[N+]([O-])c1ccc(O)c(C=Nc2ccc3oc(Cc4ccc(Cl)cc4)nc3c2)c1 | 11.3
CC(C)NC(=O)CN1C(=O)CSc2ccc(S(=O)(=O)N3CCCC3)cc21 | 13.3
Cc1ccc(/C(O)=C2\C(=O)C(=O)N(CC(C)O)C2c2ccccn2)cc1 (stereo not drawn) | 2.24
Cc1ccc(S(=O)(=O)NC(C)(C)CSc2nncn2N)cc1 | 7.72
O=C1Nc2ccc(Br)cc2C(c2ccc(Cl)cc2)=NC1O (stereo not drawn) | -22.5
CC(=O)Nc1nonc1-c1nc2ccccc2n1CCC(C)C | 7.61
CN(C)C(CNC(=O)CCS(=O)(=O)c1ccccc1)c1ccccc1 (stereo not drawn) | 6.21
O=C(CC(NC(=O)c1ccccc1)c1ccccc1)Nc1ccc(F)c(F)c1 (stereo not drawn) | 22.8
COc1ccc(C(=O)NC2CCN(S(=O)(=O)c3ccccc3F)CC2)cc1 | 13.1
O=C(OC(C(=O)NCc1ccccc1)c1ccccc1)c1ccco1 (stereo not drawn) | 16.8
CC(C)Cn1c(CN2C(=O)c3ccccc3C2=O)nc2ccccc2c1=O | 10.5
COc1ccc(NC(=O)CN2CCc3ccccc3C2)c(OC)c1 | 15.6
COc1ccccc1Cn1cccc1C=O | 5.36
CC(Oc1cccc(Cl)c1)C(=O)N1CCCN(C)CC1 (stereo not drawn) | 15.5
Cc1cc(C)n(CC(=O)O)c(=O)c1[N+](=O)[O-] | 5.09

Structure (SMILES) | hERG current change (%, negative = inhibition) at 1uM [%]
COCCCNc1nc2c(-c3ccc(C)cc3)nnn2c2ccccc12 | 12.9
COc1ccc(-c2nnn(CC(=O)N(Cc3ccccc3Cl)C(C(=O)NCC3CCCO3)c3ccco3)n2)cc1 (stereo not drawn) | 5.29
O=C(CN1CCOCC1)Nc1cccc([N+](=O)[O-])c1 | 12.4
Cc1ccc(CNS(=O)(=O)NCc2ccccc2)cc1 | 11.2
O=C(CSc1ccccc1C(=O)NCc1ccccc1)NC12CC3CC(CC(C3)C1)C2 | 4.41
COc1ccc(-c2nnc3cccc(Cl)n23)c(OC)c1 | 9.08
COc1ccc(NS(=O)(=O)c2ccc(OC)c(N(C)S(=O)(=O)c3ccc(Cl)cc3)c2)cc1 | 1.57
CN1CCc2c(sc(NC(=O)c3ccc(S(=O)(=O)N4CCc5ccccc54)cc3)c2C(N)=O)C1.Cl | 8.16
COc1ccc2c(c1OC)C(=O)N(c1ccccc1)C2=O | 3.82
O=C(O)CCC(NC(=O)c1cncc(O)c1)C(=O)O (stereo not drawn) | 5.86
CC(C)CN(C(=O)c1ccc(=O)n(C)n1)c1nc2ccccc2s1 | 7.42
COC(=O)CC(=O)CSc1nc2c(cc1C#N)CCCCC2 | 9.77
COCCn1c(SCC(=O)NCC2CCCO2)nc2c(c1=O)SCC2 (stereo not drawn) | 13.8
CCOCCCNCc1ccc(OCc2ccccc2C)c(OC)c1.Cl | 0.719
N#CCN1CCCC(C(N)=O)C1 (stereo not drawn) | 7.14
CN1CCN(C(=O)C2CCN(c3ncnc4c3nc3n4CCCCC3)CC2)CC1 | 17.1
CCOC(=O)CSc1ccc(S(=O)(=O)N(C)C2CCCCC2)cc1[N+](=O)[O-] | 14.4
O=C(NCCS(=O)(=O)N1CCN(c2ccccc2F)CC1)c1ccc(Br)cc1 | 18.8
CN(C)C=O.O=C(CNC(=O)C12CC3CC(CC(C3)C1)C2)N1CCN(S(=O)(=O)c2cccs2)CC1 | 13.2
COc1ccc(N(CC(=O)N/N=C(\C)c2cccs2)S(=O)(=O)c2ccccc2)cc1Cl | -33.6
O=c1[nH]c(CN2CCNCC2)nc2ccccc12 | 1.3
